The supplement of paper PMC12217912
This is one part of the list. Sequences were assembled here from the parent chain. Values near 0.05 are background.

B1: TEV protease; numbered along this chain (parent)
chain: MGESLFKGPRDYNPISSSICHLTNESDGHTTSLYGIGFGPFIITNKHLFRRNNGTLVVQSLHGVFKVKDTTTLQQHLVDGRDMIIIRMPKDFPPFPQKLKFREPQREERICLVTTNFQTKSMSSMVSDTSCTFPSGDGIFWKHWIQTKDGQCGSPLVSTRDGFIVGIHSASNFTNTNNYFTSVPKNFMELLTNQEAQQWVSGWRLNADSVLWGGHKVFMVKPEEPFQPVKEATQL

Variants of: B1
Test: raw area under fraction-flipped curve 0-4 h after induction (AUC4h, not background-subtracted), DNA-recorder readout of cleavage of the substrate (dimensionless); higher = more cleavage of the substrate by the protease variant
Conditions: temperature: 34 °C; time window: 0-4 h after rhamnose induction
Protocol: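 In vivo DNA recorder in E. coli TOP10(DE3) ΔrhaA at 34 °C. Each TEVp single-site mutant (parent TEVp 0) is paired with a single-site variant of the 7-mer TEVs (canonical ENLYFQ|S). The substrate sits between flexible linkers in a Bxb1-sfGFP-TEVs-SsrA fusion, so cleavage stabilises Bxb1 and speeds flipping of a recombination array, read by NGS. The value is the raw area under the fraction-flipped curve over 0-4 h after rhamnose induction (AUC4h), with ≥20 reads per time point. It is not background-subtracted; inactive controls average about 0.047.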
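Further: Bxb1 expression induced with 0.2% (w/v) L-rhamnose at OD600 near 0.5, cultures sampled hourly, flipped fraction per protease–substrate barcode pair counted by paired-end Illumina sequencing.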

Row | Variant | area with substrate ENLAFQS | area with substrate ENLCFQS | area with substrate ENLDFQS | area with substrate ENLFFQS | area with substrate ENLHFQS | area with substrate ENLIFQS | area with substrate ENLKFQS | area with substrate ENLLFQS | area with substrate ENLNFQS | area with substrate ENLPFQS | area with substrate ENLQFQS | area with substrate ENLRFQS | area with substrate ENLSFQS | area with substrate ENLWFQS | area with substrate ENLEFQS | area with substrate ENLVFQS | area with substrate ENLTFQS | area with substrate ENLGFQS | area with substrate ENLMFQS
1 | P184N | 0.0568 | 0.0679 | 0.0599 | 0.0622 | 0.0593 | 0.0572 | 0.0614 | 0.0606 | 0.0452 | 0.0797 | 0.0749 | 0.0639 | 0.0431 | 0.0436 |  |  |  |  | 
2 | G136H | 0.068 | 0.0645 | 0.0638 | 0.0668 | 0.0726 | 0.0987 | 0.0668 |  | 0.0724 | 0.0777 | 0.0576 |  | 0.0481 | 0.061 | 0.0843 | 0.0827 |  |  | 
3 | Q198K | 0.0733 | 0.0683 | 0.0619 | 0.0854 | 0.0769 | 0.0953 | 0.078 | 0.117 | 0.0691 | 0.0641 | 0.0695 | 0.0777 | 0.0605 |  | 0.07 | 0.0782 | 0.0633 |  | 
4 | G54I | 0.0512 | 0.0779 | 0.0501 | 0.0559 | 0.0542 | 0.0546 | 0.0542 | 0.0521 | 0.0454 | 0.0541 | 0.0469 | 0.0563 | 0.0626 | 0.0652 | 0.06 | 0.0616 |  |  | 
5 | T31E | 0.0679 |  | 0.0635 | 0.0773 | 0.0534 | 0.07 | 0.0725 | 0.0649 | 0.0676 | 0.0634 | 0.0538 | 0.0711 |  |  | 0.0431 |  | 0.0787 | 0.0652 | 
6 | P96S | 0.0669 |  |  | 0.0628 | 0.0487 | 0.0857 | 0.0733 |  | 0.0535 |  | 0.0852 | 0.107 |  |  |  |  |  |  | 0.0585
7 | G80P | 0.0558 |  | 0.0612 | 0.0653 |  | 0.0838 |  |  |  | 0.0662 |  |  | 0.0518 |  |  |  |  |  | 
8 | H168Q | 0.0528 | 0.0462 | 0.0611 | 0.064 | 0.064 |  | 0.0575 | 0.0614 | 0.0709 | 0.0617 | 0.0514 | 0.0503 | 0.0614 | 0.0609 | 0.0567 | 0.0668 |  | 0.0587 | 0.0501
9 | D128E | 0.0712 | 0.0754 | 0.0652 | 0.1 |  |  |  |  | 0.0895 |  |  | 0.0568 |  | 0.0824 | 0.0563 |  |  | 0.0701 | 
10 | R10S | 0.0755 | 0.0648 | 0.063 | 0.0772 | 0.0595 | 0.0709 | 0.0803 | 0.0693 | 0.0624 | 0.0552 |  | 0.0663 | 0.0671 |  | 0.0468 | 0.0718 |  |  | 0.0765
11 | P40T | 0.0609 |  | 0.0564 | 0.094 | 0.0681 | 0.0871 | 0.0806 | 0.0988 | 0.0701 | 0.0651 | 0.0719 | 0.0619 | 0.0703 | 0.0759 | 0.0545 | 0.0854 |  | 0.0595 | 0.0874
12 | P184W | 0.0621 | 0.0564 | 0.056 | 0.0729 |  |  | 0.0589 | 0.0635 | 0.0648 | 0.0588 | 0.0555 |  | 0.0616 | 0.0672 | 0.0743 | 0.0424 | 0.0716 | 0.0712 | 
13 | S17W | 0.0549 |  | 0.0589 | 0.0876 | 0.0814 | 0.0868 | 0.0824 | 0.061 | 0.0463 | 0.05 | 0.0211 | 0.0708 | 0.0581 | 0.0657 | 0.065 | 0.0798 |  |  | 0.0688
